# The source gives no read counts; variants with many changes may rest on few reads.
# B1: OR4K15 (parent)
# chain: GUUAACGGUCAUAGGCCAUGGAAACUAGGAGCACCAUUUCGCUGCCAGUGAAGAAAUGAACAAAGAAAAUCUGGGCCAGGCAGGCAUCAAAAGAAAUAGUCUUGCGCUCAACCAGAAAGUCUGUAAUCAUUUUAAGGGUA
# Variants of: B1
# Experiment: self-cleavage, relative activity (ratio to wild type); higher = more cleavage; in vitro, sequencing; the parent is a self-cleaving ribozyme
row,Variant,self-cleavage
1,U3C A23G A63G U87C,1.64
2,A59G U103C U108C,0.01
3,U12C A69G A82G U127A,0.63
4,A23U A47G A55G G93A G106A U127A,0.01
5,G1A U108C U122C U124C,0
6,U49A A56G U130C,1.44
7,U87C A91G U120G U122G,0.86
8,A23G U100A U102C A114U,0.12
9,U19C A52G A91G,0.98
10,U38C A59G A126G,0.34
11,A18G U19C A30G A64G A68G,0.08
12,A5U A47G U49A A140U,0.6
13,A66U A86G U124G,0.48
14,U37C A78G C101G,0.01
15,C45U A66G A95U,1.48
16,U38C U49C A78G U131C,0.13
17,U43A A54U A64U A96C,0.69
18,U97C A118C G123U,2.39
19,U3C A22U A89G A98G U120C U124C,0.06
20,A55G A66G U100C,1.83
21,A5G A51G A64G A67G,0.41
22,A63G U122C A126G,0.24
23,A22U U43C U57C C77A,0.53
24,A27G A62U U87C U102C C121A,2.73

row,Variant,self-cleavage
1,U9C U19C A63U,1.74
2,A69G A92G A126G,0.89
3,A47U A66G A95G,1.5
4,C35U A66U A140U,0.6
5,A5U A47G A54G U100C,2.06
6,A59G G104U U120C A135G,0.01
7,A54G A66U G84C A118G U131C,0.07
8,A54G U87C U97A A116G U127C U131C,0.09
9,A118G A134U A140G,1.09
10,A11U A23G U87A A114C U127C,0.02
11,C81U U100A A110C,0.02
12,U43A G48U U122C,1.14
13,A11U U37C A54G A60G,0.46
14,A62G A63G A96G,1.29
15,U9C A24G A69G A89G U132C,1.93
16,A22C A30G A59G A129C,0.41
17,A4C A23U A60U,1.6
18,G15A A67U G75A U102C A140U,0.04
19,U38C A47G A117G,1.58
20,U39C A68G A78U,0.37
21,A18U A67G U87A A140G,1.68
22,A36G G44A U49C A59G A66G A69G U87C,0.23
23,A55G C81U U103C,0.03
24,G28A A55U A60G A62G,0.28

row,Variant,self-cleavage
1,A63G G83A A135U,1.78
2,U37C G48A A59G A110G,0.04
3,A52G A95G A129G,1.47
4,A24G A55U A94G A117G,1.82
5,G15A A66G A82G U108C,0
6,A30G A66G A94G,1.06
7,U57C A60G U122C,1.01
8,A111G A114G U127C,0.01
9,A60G G99U A110U,0.29
10,U39C A117U U122C,0.84
11,A67G A82U C105U,0
12,A55G U133C U139C,1.83
13,A54G A90G A96U,1.48
14,U37C U87C A90G,0.25
15,A30G U57G A59G A63G,0.87
16,U37C A86G A91G A118G,0.31
17,U3A A5G A62U A92U A114U A118G A134G,0.01
18,A22U A89G A140G,1.41
19,A5G A59G A86G A91G A94G U120C U124C,0.02
20,U39C A62U A67G A116G,0.18
21,A54U U57C U70C U122A,0.88
22,A62G A68G U103A A129G,0.45
23,A5G A63C A129C A135G,1.39
24,A13G U38A A91C C105A A129G,0.02

row,Variant,self-cleavage
1,U12C A30G A60G A62G,0.27
2,A22G A55G A68G A92G,1.07
3,U43C A52G A95G U132C,1.42
4,U2C U9G A22G A47G A90G,0.77
5,U9C U43C U131G,1.64
6,A5U A66G A86G G99A U103C,0.04
7,U12A A22G U37C A110G,0.14
8,A11G A62U U70A U87C,0.69
9,A18G A36G A69G U72G A94G,0.15
10,A36G U39C A51G A67G U122A,0.71
11,A23C U57C A63G,1.17
12,U2G A94G U122C,2.56
13,A52G G58A A69U A82G C112U A117G U122G,0.01
14,C10U U57A A135U,0.91
15,A111G A117G U124C A126G,0.01
16,A4G A11G A24G A68G A117G U132A,1.52
17,A5U A11G A82U,0.22
18,A114U A116C U127C,0
19,A51U A91G G104A C107A A111G A140G,0
20,U19C A23G U102C A116G,0.98
21,A18G U70A U87C A118U A125G,0.23
22,U12C A67G A91G,0.69
23,A55G A95G A110G,0.18
24,A56G A98U A134U,2.47

row,Variant,self-cleavage
1,U43C A47G A78G A118G,0.03
2,A51G A90G U120A U131C,0.36
3,U19C C32G A47G A54G A78G A110C,0.15
4,A5C U9G A67G,0.37
5,U2A U37C U43C A95G,2.05
6,A116G U122C U131G G138A,0.71
7,A63G A78G U103C,0.08
8,U2A A60G A96G A116G U122C,1.18
9,G31A A33U A68G A86G A117G,1.49
10,A36G A69G A86G,2.46
11,A52U A60G U120C U139C,0.73
12,A51G A55G A96G,0.84
13,U39A A54G A66G U103A,0.54
14,A56G U100A U127A,0.84
15,C6A A60G G75A U130C,0.06
16,A13G A18U A23G A30U A90G G119A,1.34
17,G7A C88U G136A,1.75
18,A18G A33G A52G A62U U102G U122C U132C,0.05
19,A55G A135G U139C,1.36
20,A52G U131C U139C,0.35
21,A36U A67G U103C U130C,0.48
22,A24G C46U A59G U133C,1.23
23,A23U C32U G41A,2.22
24,A52G A78G A90G U124C,0.11

row,Variant,self-cleavage
1,U9C A60C A114U,0.22
2,A5G U19C A33G G106C,0.04
3,U70C A82U A118G U130C,0.03
4,A11G A36C U43C A51G A60G A67C A94G A126G,0.62
5,U37C U49A A117G,1.64
6,A23U A36C A52G A55G,1.47
7,A24G U38A A68G,1.27
8,A5U A66C A98U,0.62
9,U39C A55G U72A A86U A96G,0.2
10,A27G U70C A98U A114G,0.37
11,A22G A47G A89U A110G,0.16
12,A47U A66G U72A A126G A134G,0.19
13,U38C A118G U132C,2.12
14,A23G U43A A63G A68U,1.8
15,A13G A54G A68U G137A,1.2
16,A5C G7A U9C U49C A64G,2.21
17,G21A U38C U39C U57C A114U,0.06
18,A22G A52G A67G U108C,0.03
19,U49C A95G A116G,1.16
20,U26C U43A A47G U57C A69G U70C U97C,0.11
21,U3C A56G U108C,0.02
22,G8A A30G A54G A62G A67G A94U A95G U108C,0.05
23,A23G U38C A62G U100A,0.22
24,A30U A60G A66G A90C,1.18

row,Variant,self-cleavage
1,U2C C85A A94G A129G,0.77
2,A67C A86G U130C A135C,2.32
3,A11G C35A A94G,1.07
4,U19G A23G U102C A118G A134U,1.05
5,C25A A69U A117U U132C,0.55
6,A64G A92G A117G,1.65
7,U39C U122A U127C U131C,1.02
8,A18U U72C U97C U124A,0.05
9,G21A A51G A60G A95G,1.63
10,A4G A54C U102C,1.89
11,U39A U49C U72C U131C,0.13
12,A23G A90G A116G U132C,0.91
13,A22G A64G A78U,0.21
14,A22G A56G A114U,0.04
15,U19C G75C A129G,0.06
16,U43A U70C A110G A135U,0.11
17,A22G C25U A33G,0.9
18,A22G A27G A54G U87A U131C,0.75
19,A4G U39A G104A U132C,0.08
20,A22G A62G U131C,1.57
21,U12C U43C A59G U87C,0.17
22,A23U A89U U100C A135G,2.81
23,G20U G53A A62G A69U U127C,1.84
